# In all, about 360,000 compounds went through this assay and about 16,000 (4.4%) were called active. Inconclusive means that the source gave no clear call. Such entries were picked first, then a sample of the others. Calls come from the whole dose curve; as a rule, active = well fitted inhibition curve with a large enough effect; inconclusive = small, poorly fitted or top-dose-only effect; inactive = no such curve, though single readings can be large or run the other way. Potencies beside an inconclusive call are fits to weak or partial responses and may not hold up.
# Target: Bromodomain adjacent to zinc finger domain protein 2B (Homo sapiens) (UniProt Q9UIF8)
# Sequence of UniProt Q9UIF8 (Q9UIF8 whole entry, looked up, the tested form may be a part): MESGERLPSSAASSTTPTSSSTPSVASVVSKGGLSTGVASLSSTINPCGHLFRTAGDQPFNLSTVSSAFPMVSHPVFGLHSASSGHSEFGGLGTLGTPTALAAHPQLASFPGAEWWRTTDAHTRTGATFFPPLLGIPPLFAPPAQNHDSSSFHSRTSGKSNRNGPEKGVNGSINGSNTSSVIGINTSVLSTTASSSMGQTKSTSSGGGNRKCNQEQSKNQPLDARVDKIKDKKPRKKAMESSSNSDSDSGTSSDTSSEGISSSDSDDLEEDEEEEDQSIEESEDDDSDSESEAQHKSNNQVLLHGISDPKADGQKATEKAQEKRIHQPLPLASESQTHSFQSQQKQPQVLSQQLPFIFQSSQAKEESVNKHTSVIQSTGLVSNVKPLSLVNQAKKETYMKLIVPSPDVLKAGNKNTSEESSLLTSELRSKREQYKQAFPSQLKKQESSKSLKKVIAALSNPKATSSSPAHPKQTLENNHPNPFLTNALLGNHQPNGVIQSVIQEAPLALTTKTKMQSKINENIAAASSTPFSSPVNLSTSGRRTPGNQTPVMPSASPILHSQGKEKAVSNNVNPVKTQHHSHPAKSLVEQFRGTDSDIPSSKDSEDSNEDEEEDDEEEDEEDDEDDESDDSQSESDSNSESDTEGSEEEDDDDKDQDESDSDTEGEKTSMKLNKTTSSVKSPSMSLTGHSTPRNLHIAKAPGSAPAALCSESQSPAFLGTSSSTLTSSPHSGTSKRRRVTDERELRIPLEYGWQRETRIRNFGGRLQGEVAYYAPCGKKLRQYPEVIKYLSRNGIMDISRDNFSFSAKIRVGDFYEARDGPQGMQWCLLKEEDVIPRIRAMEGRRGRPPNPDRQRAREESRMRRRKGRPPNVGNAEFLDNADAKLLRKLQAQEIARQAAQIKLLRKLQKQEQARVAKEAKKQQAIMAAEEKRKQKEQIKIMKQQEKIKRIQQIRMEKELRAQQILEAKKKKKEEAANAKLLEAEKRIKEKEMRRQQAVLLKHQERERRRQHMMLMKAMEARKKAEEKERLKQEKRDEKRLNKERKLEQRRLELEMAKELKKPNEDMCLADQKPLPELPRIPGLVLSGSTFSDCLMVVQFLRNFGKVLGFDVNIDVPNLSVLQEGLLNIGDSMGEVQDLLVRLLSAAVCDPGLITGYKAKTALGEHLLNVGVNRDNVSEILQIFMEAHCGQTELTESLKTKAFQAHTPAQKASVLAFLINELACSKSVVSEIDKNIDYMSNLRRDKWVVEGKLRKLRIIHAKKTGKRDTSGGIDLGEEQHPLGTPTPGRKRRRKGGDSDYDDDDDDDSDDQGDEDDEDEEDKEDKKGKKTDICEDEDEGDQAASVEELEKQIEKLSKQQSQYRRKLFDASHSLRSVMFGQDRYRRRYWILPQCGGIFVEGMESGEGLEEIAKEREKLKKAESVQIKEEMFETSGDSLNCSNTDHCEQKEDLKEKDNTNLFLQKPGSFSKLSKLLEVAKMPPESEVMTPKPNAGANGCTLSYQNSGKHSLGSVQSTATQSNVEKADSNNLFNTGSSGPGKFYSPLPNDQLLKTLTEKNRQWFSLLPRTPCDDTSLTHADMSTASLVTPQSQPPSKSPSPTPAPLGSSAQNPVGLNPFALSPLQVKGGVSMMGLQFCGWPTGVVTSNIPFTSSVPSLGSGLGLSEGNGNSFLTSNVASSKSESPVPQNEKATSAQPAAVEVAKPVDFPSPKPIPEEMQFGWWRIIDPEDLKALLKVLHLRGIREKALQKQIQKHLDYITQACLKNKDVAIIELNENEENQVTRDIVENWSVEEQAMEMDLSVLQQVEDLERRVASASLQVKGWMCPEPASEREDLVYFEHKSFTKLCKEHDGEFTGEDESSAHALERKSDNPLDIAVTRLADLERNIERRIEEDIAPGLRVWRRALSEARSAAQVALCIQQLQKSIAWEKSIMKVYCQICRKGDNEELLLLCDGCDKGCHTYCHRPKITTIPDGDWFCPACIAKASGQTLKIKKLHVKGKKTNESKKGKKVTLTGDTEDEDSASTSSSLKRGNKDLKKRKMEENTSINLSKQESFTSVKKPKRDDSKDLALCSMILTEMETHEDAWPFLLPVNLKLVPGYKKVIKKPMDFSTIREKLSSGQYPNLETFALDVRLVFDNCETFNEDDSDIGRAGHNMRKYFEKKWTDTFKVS
# Test: qHTS Assay for Inhibitors of BAZ2B; note: nearly all actives have a fitted effect of over 60% in size
# Conditions: AlphaScreen BAZ2B-H3K14Ac peptide displacement; series mostly up to 114 µM
# Method in brief: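 AlphaScreen luminescence quantifies BAZ2B engagement of H3K14Ac peptide; the protein and biotinylated peptide are both at 50 nM final, buffer PBS pH 7.4 with 0.01% Tween-20, all steps at room temperature.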
# Potency is the fitted concentration of half-maximal effect; tags give direction and shape of the fitted curve.
row,Structure (SMILES),Potency
1,Cc1ccc(-c2ccc(CCC(=O)O)n2Cc2ccco2)cc1,"inconclusive: 39.8 µM [inhibitor, single point]"
2,CN1CCN(S(=O)(=O)c2cc([N+](=O)[O-])ccc2N2CCCCCC2)CC1,"inconclusive: 70.8 µM [inhibitor, single point]"
3,COCCn1c(-c2ccc(OC)cc2)cnc1SCC(=O)Nc1ccc(OC)cc1OC,active: 44.7 µM
4,COc1ccc(NS(=O)(=O)c2cc(C)ccc2NC(=O)c2cc(C)oc2C)cc1,"inconclusive: 89.1 µM [inhibitor, single point]"
5,O=S(=O)(c1ccc(Cl)cc1)c1nc(-c2cccs2)oc1SCc1ccc(F)cc1,inactive
6,CC(C)(C)c1ccc(NC(=O)COC(=O)C2CCCC2)cc1,inactive
7,Cc1ccc2[nH]cc(CCNC(=O)c3ccc([N+](=O)[O-])cc3)c2c1,"inconclusive: 50.1 µM [inhibitor, partial curve]"
8,Clc1ccccc1OCCCn1ccnc1,active: 79.4 µM
9,O=[N+]([O-])c1cc(C(F)(F)F)ccc1NCCc1c[nH]c2ccccc12,active: 11.2 µM
10,COc1ccc(NC(=O)c2ccc3nc[nH]c3c2)c(OC)c1,"inconclusive: 50.1 µM [inhibitor, partial curve]"
11,CCOc1cccc(C(=O)NC(=S)Nc2cccc(C)c2)c1,"inconclusive: 44.7 µM [inhibitor, partial curve]"
12,CCC(C)c1ccccc1OCCCCN1CCCC1 (stereo not given),"inconclusive: 89.1 µM [inhibitor, single point]"
13,Fc1ccc(C(c2nnnn2Cc2ccco2)N2CCN(C3CCCCC3)CC2)cc1 (stereo not given),inactive
14,Cc1c(OC(C)C(=O)NCC2CCC(C(=O)O)CC2)ccc2c(-c3ccccc3)cc(=O)oc12 (stereo not given),"inconclusive: 89.1 µM [inhibitor, single point]"
15,COc1ccccc1C1CCN(c2cc(O)ccc2[N+](=O)[O-])CC1,active: 25.1 µM
16,COc1ccc(C2(Nc3cccc(F)c3)C(=O)c3ccccc3C2=O)cc1,"inconclusive: 25.1 µM [inhibitor, full curve]"
17,COc1cc2c(cc1OC)C1=NC(=O)CN1C(SCc1ccccc1C)=N2,"inconclusive: 89.1 µM [inhibitor, single point]"
18,CC1(C)CC(=O)C(N=Nc2ccc3ncsc3c2)=C(O)C1,"inconclusive: 89.1 µM [inhibitor, single point]"
19,CCOC(=O)C1CCCN(C2CC(=O)N(c3ccccc3)C2=O)C1 (stereo not given),inactive
20,COc1ccc2nc(-c3ccco3)c(-c3ccco3)nc2c1,active: 50.1 µM
21,c1ccc2c(CCNc3ncnc4nc[nH]c34)c[nH]c2c1,inactive
22,Cc1cc(NS(=O)(=O)c2ccc(Nc3nc(-c4sc(N)nc4C)cs3)cc2)no1,"inconclusive: 79.4 µM [inhibitor, single point]"
23,Cc1ccc(-c2nc(CS(=O)CC(=O)NCc3ccccc3Cl)c(C)o2)cc1 (stereo not given),"inconclusive: 22.4 µM [inhibitor, full curve, poor fit]"

row,Structure (SMILES),Potency
1,COc1cccc(/C=N/c2nc3ccccc3n2C)c1O,"inconclusive: 89.1 µM [inhibitor, single point]"
2,CCN(CC)CCN(C(=O)C1=COCCO1)c1nc2cc(C)cc(C)c2s1,inactive
3,COc1ccccc1CC(=O)Nc1cc(OC)c(NC(=O)c2ccccc2)cc1OC,"inconclusive: 89.1 µM [inhibitor, single point]"
4,COc1ccc(S(=O)(=O)N2CCOCC2)cc1NC(=O)CCNC(=O)c1ccc(Cl)cc1,inactive
5,Cc1ccc(NC(=O)C2(c3ccccc3)CCOCC2)c([N+](=O)[O-])c1,"inconclusive: 44.7 µM [inhibitor, partial curve]"
6,CCN(CC)C(=O)c1ccccc1NC(=O)CN1C(=O)c2ccccc2S1(=O)=O,"inconclusive: 89.1 µM [inhibitor, single point]"
7,CCOC(=O)c1c(C2COc3ccccc3O2)csc1NC(=O)c1ccco1 (stereo not given),"inconclusive: 70.8 µM [inhibitor, single point]"
8,Cc1cc(Nc2cccc(Cl)c2)nc2ccc(NC(=O)c3cncc(Br)c3)cc12,inactive
9,CCn1cc([N+](=O)[O-])c(C(=O)N2N=C(c3cccc4ccccc34)CC2c2ccccc2O)n1 (stereo not given),"inconclusive: 70.8 µM [inhibitor, single point]"
10,Cc1cccc(NC(=O)CCn2cnc3ccccc3c2=O)c1,"inconclusive: 89.1 µM [inhibitor, single point]"
11,CCOc1ccc(OCC)c(NC(=O)CN2CCN(c3cccc(C)c3C)CC2)c1,"inconclusive: 89.1 µM [inhibitor, single point]"
12,CCc1nn(CC(=O)N2CCCCC2)c(=O)c2cc3occc3n12,inactive
13,CCCc1nnc(NC(=O)c2nc(SCC)ncc2Cl)s1,inactive
14,CCn1c2ccccc2c2nnc(SCC(=O)Nc3ccc4c(c3)OCO4)nc21,"inconclusive: 89.1 µM [inhibitor, single point]"
15,Cc1nc(SCC(=O)Nc2cc(C(N)=O)cc(C(N)=O)c2)c2c(C)c(C)sc2n1,"inconclusive: 39.8 µM [inhibitor, partial curve]"
16,O=[N+]([O-])c1ccccc1/C=C/C=N/Nc1ccc(S(=O)(=O)Nc2ccc(Cl)cc2)cc1[N+](=O)[O-],"inconclusive: 4.47 µM [inhibitor, full curve]"
17,Cc1c(-c2nc(-c3ccc(C(C)(C)C)cc3)no2)n(C)oc1=O,inactive
18,COc1ccc(C(NC(=O)/C=C/c2ccco2)c2ccc(OC)c(OC)c2)cc1OC,"inconclusive: 79.4 µM [inhibitor, partial curve]"
19,Cc1ccc(-c2nnc(NC3CCCC3)s2)cc1,inactive
20,COC(=O)C(C)Oc1ccc2c(c1)O/C(=C\c1ccco1)C2=O (stereo not given),"inconclusive: 50.1 µM [inhibitor, partial curve]"
21,COCCn1c(SCC(=O)Nc2c(C)n(C)n(-c3ccccc3)c2=O)nnc1-c1ccncc1,inactive
22,C/C(=N\N(C)C)c1ccc(OCCOc2ccc([N+](=O)[O-])cc2)cc1,"inconclusive: 50.1 µM [inhibitor, partial curve]"
